Laboratory results from PubChem BioAssay AID686978 (National Center for Advancing Translational Sciences (NCATS), 2013).
Several values for one entry are separate records, joined by “and”; a condition that tells them apart may be missing. Identical values can stand only once. In all, about 420,000 compounds went through this assay and about 64,000 (15%) were called active. The inconclusive results got no clear call from the source; some entries with a clear call stand among them for comparison. Calls follow the shape of the dose curve; as a rule, active = well fitted inhibition curve with a large enough effect; inconclusive = small, poorly fitted or top-dose-only effect; inactive = flat fitted curve, though single readings scatter. A potency beside an inconclusive call is a rough fit, not a confirmed value.

Experiment: qHTS for Inhibitors of human tyrosyl-DNA phosphodiesterase 1 (TDP1): qHTS in cells in absence of CPT; also: nearly all actives have a fitted effect of over 55% in size
Conditions: DT40 Tdp1-/- hTDP1 cells, no CPT, ATP luminescence, 48 h; activity change, negative = growth inhibition: at 46.2 µM (top of the series) unless noted
Method in brief: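 Compound effects on proliferation are scored in DT40 Tdp1-/-;hTDP1 cells in the absence of CPT. ATP levels (CellTiter-Glo luminescence) are recorded after a ≥48 hr, 37 °C incubation.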
% is scaled to controls: 0 for no effect and ±100 for the full control effect; potency is read from the fitted curve at half-maximal effect; tags tell the direction and shape of the fitted curve.

Structure (SMILES) | Potency | activity change, negative = growth inhibition
CC(C)(C)C1CCC(N2CCN(c3ccccc3)CC2)CC1 (configuration not stated) | inconclusive: 23.1 µM [inhibitor, single point] | –
Cc1ccc(C)c(S(=O)(=O)N2CCN(C(=O)CCCc3c[nH]c4ccccc34)CC2)c1 | active: 23.1 µM | –
C=CCn1c(COc2ccc(Cl)cc2)nnc1SCC(=O)N1CC(=O)Nc2ccccc21 | – | inactive: -26.9%
O=[N+]([O-])c1cc(C(F)(F)F)ccc1NCCCCNS(=O)(=O)c1ccc2ccccc2c1 | active: 23.1 µM | –
Oc1csc(Cc2nc(-c3ccccc3F)cs2)n1 | – | inactive: -3.55%
CCCc1cc(=O)oc2c3c(cc(OCC(=O)NCc4ccccn4)c12)OC(C)(C)CC3 | inconclusive: 20.6 µM [inhibitor, single point] | –
C=CCOc1ccc(CNn2cn[nH]c2=S)cc1OCC | – | inactive: -0.158%
Cc1ccc(S(=O)(=O)Nc2cc(=O)[nH]c3c2CCC3)cc1 | inconclusive: 8.2 µM [inhibitor, partial curve] | –
COc1ccccc1NS(=O)(=O)c1cc(NC(=S)NCC2CCCO2)ccc1C (configuration not stated) | inconclusive: 16.4 µM [inhibitor, partial curve] | –
C[C@H](CO)N1C[C@H](C)[C@@H](CN(C)S(=O)(=O)c2ccccc2C#N)OCc2cnnn2CCCC1=O | inconclusive: 0.206 µM [inhibitor, full curve, poor fit] | –
Oc1ccc(/C=N/N2CCN(c3ccccn3)CC2)cc1 | inconclusive: 23.1 µM [inhibitor, single point] | –
Cc1noc(C)c1S(=O)(=O)N1CCC(C(=O)NCCC2=CCCCC2)CC1 | inconclusive: 29.1 µM [inhibitor, single point] | –
CCOc1cc(C(C(=O)NCC2CCCO2)N(C(=O)Cn2nnc3ccccc32)c2ccc(C(C)=O)cc2)ccc1O (configuration not stated) | – | inactive: 2.75%
COc1ccc(-c2cc(=O)c3c(O)cc(O)c(-c4cc(-c5cc(=O)c6c(O)cc(O)cc6o5)ccc4OC)c3o2)cc1 | inconclusive: 25.9 µM [inhibitor, single point] | –
COc1ccc(/C=N/NC(=O)c2c(C)nc3ccc(Cl)cn23)cc1OC | active: 8.2 µM | –
NC(=O)COc1c(-c2ccc(Br)o2)oc2ccccc2c1=O | inconclusive: 23.1 µM [inhibitor, single point] | –
COc1ccc(CNCc2ccc(C)cc2)c(OC)c1 | inconclusive: 29.1 µM [inhibitor, single point] | –
COc1ccc(C(=O)CCNc2cccc(Cl)c2)cc1 | inconclusive: 18.4 µM [inhibitor, single point] | –
CCN(CC)S(=O)(=O)c1ccc(N2CCOCC2)c(NC(=O)COc2ccc(C#N)cc2)c1 | inconclusive: 14.6 µM [inhibitor, partial curve, poor fit] | –
CNc1c(NS(=O)(=O)c2ccc(OC)cc2)c(=O)oc2ccccc12 | inconclusive: 23.1 µM [inhibitor, partial curve] | –
CC1=NN(c2ccccc2)C(=O)/C1=C/C=C/C=C/N(C)C | inconclusive: 23.1 µM [inhibitor, single point] | –
CCOc1cc(CNCCc2ccccc2)ccc1OCC(=O)NC(C)(C)C | active: 20.6 µM | –
CC(C)(C)N(Cc1ccccc1)C(=O)CN1C(=O)c2ccccc2S1(=O)=O | active: 20.6 µM | –

Structure (SMILES) | Potency | activity change, negative = growth inhibition
CN(CC(=O)Nc1ccc(F)c(Cl)c1)S(=O)(=O)c1ccc2c(c1)n(C)c(=O)c(=O)n2C | inconclusive: 29.1 µM [inhibitor, single point] | –
COc1ccc(OC)c(/C=C2\SC(=S)N(N3CCOCC3)C2=O)c1 | inconclusive: 20.6 µM [inhibitor, single point] | –
COc1ccc(OC)c(C(C)NC(=O)Cn2c(=O)cc(C)c3c(C)nn(-c4ccc(C)cc4)c32)c1 (configuration not stated) | inconclusive: 10.3 µM [inhibitor, partial curve] | –
Cc1ccc2c(c1)c1c3n2CCCNC3CCC1 (configuration not stated) | inconclusive: 25.9 µM [inhibitor, partial curve, poor fit] | –
COc1ccc(Br)cc1C(=O)NC(=S)Nc1c(C)n(C)n(-c2ccccc2)c1=O | – | inactive: -24.8%
CC(=O)N1CCN(CC(C)(C)NS(=O)(=O)c2ccccc2)CC1 | – | inactive: 12.9%
Cc1cc(C2=NNC(=NC3CC3)SC2)c(C)n1-c1ccccc1F | active: 20.6 µM | –
COc1ccc(CNC(=O)c2nn(-c3ccccc3C)nc2CO)cc1 | inconclusive: 13 µM [inhibitor, partial curve] | –
COc1ccccc1-c1cc(C(=O)N2CCCCC2C)no1 (configuration not stated) | inconclusive: 29.1 µM [inhibitor, single point] | –
CCOC(=O)/C(=N/Nc1ccc(OC)cc1)Sc1nnc(CCc2ccccc2)n1-c1ccccc1 | – | inactive: -9.45%
Cc1cc(NC(=O)C(=O)NCCN2CCN(C(=O)c3cccs3)CC2)ccc1Br | inconclusive: 29.1 µM [inhibitor, single point] | –
CCCCC(=O)Nc1ccc2nc(SCC(=O)N3CCCC3)sc2c1 | active: 20.6 µM | –
Clc1ccc2oc(-c3ccccc3)cc(=NCCCN3CCOCC3)c2c1 | inconclusive: 25.9 µM [inhibitor, single point] | –
COC(=O)[C@@]12C[C@@H](CC(=O)NCc3cccs3)C(=O)N(Cc3ccc4c(c3)OCO4)C1=CCC(C)(C)C2 | inconclusive: 23.1 µM [inhibitor, single point] | –
CCC(C)Oc1cccc(C(=O)Nc2ccccc2N2CCOCC2)c1 (configuration not stated) | active: 18.4 µM | –
COC(=O)c1ccccc1N(C)S(=O)(=O)c1cc2c(cc1C)OCC(=O)N2 | inconclusive: 29.1 µM [inhibitor, single point] | –
COc1ccc(/C=C2\SC(=O)N(CC(=O)NNC(=O)c3ccccc3O)C2=O)cc1OC | inconclusive: 32.6 µM [inhibitor, single point] | –
C=CCNc1nc2c(c(=O)[nH]c(=O)n2C)n1CCOc1ccccc1 | inconclusive: 18.4 µM [inhibitor, single point] | –
CCC1CCCCN1S(=O)(=O)c1ccc(NC(=O)c2cccnc2)cc1 (configuration not stated) | – | inconclusive: -32% [inhibitor]
Cc1cc(OCc2ccc(F)cc2)nc(-c2ccccc2O)n1 | – | inactive: -17.1%
Cc1nc2cc(F)ccc2n1C1CCN(S(=O)(=O)c2ccccc2)CC1 | inconclusive: 29.1 µM [inhibitor, single point] | –
COc1cccc(CNC(=O)C(NS(=O)(=O)c2ccc3c(c2)CCN3C(C)=O)C(C)C)c1 (configuration not stated) | inactive and inconclusive: 6.51 µM [inhibitor, full curve, poor fit] | –
COc1cc(C#N)ccc1OC(=O)Cc1cc(OC)c(OC)c(OC)c1 | – | inactive: -14.6%

Structure (SMILES) | Potency | activity change, negative = growth inhibition
COc1ccccc1N1CCN(C(CNC(=O)c2ccc3c(c2)OCO3)c2cccnc2)CC1 (configuration not stated) | inconclusive: 11.6 µM [inhibitor, partial curve, poor fit] | –
CCOc1ccccc1CC1C(=O)Nc2ccc(Br)cc21 (configuration not stated) | inconclusive: 20.6 µM [inhibitor, single point] | –
COc1ccc(C(CC(=O)c2ccccc2)S(=O)(=O)c2ccccc2)cc1 (configuration not stated) | active: 18.4 µM | –
Cc1c(CCO)c(=O)n2c([nH]c3ccccc32)c1C#N | – | inactive: 4.74%
Cn1cnnc1Sc1ccc(CN2CCOc3ccc(C4=Cc5ccccc5CC4)cc3C2)o1 | inconclusive: 23.1 µM [inhibitor, single point] | –
COc1ccc2c(c1)OC1(O)COc3cc(OC)c(OC)cc3C1=C2 (configuration not stated) | inconclusive: 13 µM [inhibitor, partial curve] | –
CN(Cc1ccc(Cl)cc1)C(=O)CNC(=O)C12CC3CC(CC(C3)C1)C2 | inconclusive: 29.1 µM [inhibitor, single point] | –
CN1c2ccccc2C(=O)C(=C2SCCCS2)S1(=O)=O | inconclusive: 25.9 µM [inhibitor, single point] | –
O=C(NC1CCCC1)c1cnn2c(C(F)(F)F)cc(-c3ccco3)nc12 | inconclusive: 20.6 µM [inhibitor, single point] | –
CCCNC(=O)C1(C)CCCN(C(=O)Cc2ccc3ccccc3c2)C1 (configuration not stated) | inconclusive: 25.9 µM [inhibitor, single point] | –
Cc1ccc2nc(-c3ccc(NS(=O)(=O)c4ccc(F)cc4)cc3)sc2c1 | inconclusive: 18.4 µM [inhibitor, single point] | –
COc1ccc(Br)cc1C1SCCN1S(C)(=O)=O (configuration not stated) | – | inactive: -5.97%
COc1ccc(CNC(=O)c2cnc3scc(C)n3c2=O)cc1 | – | inconclusive: -30.5% [inhibitor]
CCOc1cccc2c1OC1(C)CC2NC(=O)N1c1ccc(OC)cc1 (configuration not stated) | inconclusive: 29.1 µM [inhibitor, single point] | –
CC(c1nccs1)N(C)C(=O)c1ccc(OC2CCN(CCc3ccccc3)CC2)cc1 (configuration not stated) | inconclusive: 20.6 µM [inhibitor, single point] | –
CN(C(=O)CCN1C(=O)S/C(=C\c2ccccc2)C1=O)C1CCS(=O)(=O)C1 (configuration not stated) | inconclusive: 25.9 µM [inhibitor, single point] | –
Cc1nn(Cc2ccccc2)c(C)c1NS(=O)(=O)c1ccccc1 | – | inactive: -22.6%
Cc1cccc(-c2nnc(-c3cccc4ccccc34)o2)c1 | inconclusive: 29.1 µM [inhibitor, single point] | –
CCn1cc(C(=O)OCC(=O)Nc2ccc(F)cc2F)c(=O)c2ccc(C)nc21 | inconclusive: 16.4 µM [inhibitor, single point] | –
N#CC[n+]1cc(-c2ccc(Cl)cc2)n2c1CCC2 | – | inactive: -0.402%
Cn1nc(C(F)(F)F)c(-c2cccc(C(F)(F)F)c2)c1NC(=O)c1cccnc1 | inconclusive: 13 µM [inhibitor, partial curve] | –
